Experimental data reported in the supplement of paper PMC9174493.
The other results are listed elsewhere or left out. Single values of this set are uncertain. Values with irradiation are relative to irradiated vehicle.

What was measured:
A549-Dual [1] = test: NF-kB reporter (SEAP) activity, viability-corrected, relative to vehicle (fold change vs vehicle); higher = more activation of STING-IRF / NF-kB immune response reporter
A549-Dual [2] = test: ISRE reporter (Lucia luciferase) activity, viability-corrected, relative to vehicle (fold change vs vehicle); higher = more activation of STING-IRF / NF-kB immune response reporter
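Throughout, for NF-kB reporter (SEAP) activity, viability-corrected, relative to vehicle: viability correction based on the alamar blue assay, with concentrations leaving 10% survival or less dropped.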

Structure (SMILES)	NF-kB reporter (A549-Dual [1]; 0.1 µM, irradiation: 8 Gy/4 fr)	NF-kB reporter (A549-Dual [1]; 0.1 µM, irradiation: none)	NF-kB reporter (A549-Dual [1]; 0.3 µM, irradiation: 8 Gy/4 fr)	NF-kB reporter (A549-Dual [1]; 0.3 µM, irradiation: none)	NF-kB reporter (A549-Dual [1]; 1 µM, irradiation: 8 Gy/4 fr)	NF-kB reporter (A549-Dual [1]; 1 µM, irradiation: none)	NF-kB reporter (A549-Dual [1]; 3 µM, irradiation: 8 Gy/4 fr)	NF-kB reporter (A549-Dual [1]; 3 µM, irradiation: none)	NF-kB reporter (A549-Dual [1]; 10 µM, irradiation: 8 Gy/4 fr)	NF-kB reporter (A549-Dual [1]; 10 µM, irradiation: none)	ISRE reporter (A549-Dual [2]; 0.1 µM, irradiation: 8 Gy/4 fr)	ISRE reporter (A549-Dual [2]; 0.1 µM, irradiation: none)	ISRE reporter (A549-Dual [2]; 0.3 µM, irradiation: 8 Gy/4 fr)	ISRE reporter (A549-Dual [2]; 0.3 µM, irradiation: none)	ISRE reporter (A549-Dual [2]; 1 µM, irradiation: 8 Gy/4 fr)	ISRE reporter (A549-Dual [2]; 1 µM, irradiation: none)	ISRE reporter (A549-Dual [2]; 3 µM, irradiation: 8 Gy/4 fr)	ISRE reporter (A549-Dual [2]; 3 µM, irradiation: none)	ISRE reporter (A549-Dual [2]; 10 µM, irradiation: 8 Gy/4 fr)	ISRE reporter (A549-Dual [2]; 10 µM, irradiation: none)
CC(=O)Nc1cccc(-n2c(=O)n(C3CC3)c(=O)c3c(Nc4ccc(I)cc4F)n(C)c(=O)c(C)c32)c1	1.31	1.88	1.55	3.22	1.61	7.33	5.12	3.68	3.78	6.21	0.378	0.787	0.0964	0.314	0.124	0.426	0.123	0.233	0.173	0.43
CC1=C(/C=C/C(C)=C/C=C/C(C)=C/C(=O)O)C(C)(C)CCC1 [Tretinoin]	1.17	1.37	1.17	1.22	0.86	1.24	0.979	0.955	0.807	0.911	1.04	1.27	1.34	1.31	0.812	1.3	0.902	0.864	0.754	0.774
Cc1nc(Nc2ccc(F)cc2)nc(N2CCc3ccccc3C2C)c1C.Cl (stereo not given) [Revaprazan Hydrochloride]	1.03	1	0.989	0.787	1.03	0.787	0.977	0.834	0.692	0.831	0.929	0.817	0.926	0.545	0.478	0.471	0.574	0.799	0.172	0.701
O=C(Oc1ccccc1C(=O)O)c1ccccc1O [Sasapyrine]	1.05	1.19	1.32	1.07	1.36	1.15	1.38	1.12	1.22	0.887	1.08	1.17	1.2	1.06	1.17	0.97	1.13	1.17	1.1	0.937
CN(N=O)C(=O)NC1C(O)OC(CO)C(O)C1O (stereo not given) [Streptozotocin (STZ)]	0.774	1.07	0.873	1.1	0.717	0.962	0.847	0.876	0.795	0.914	0.806	1.05	1.02	1.25	0.761	0.984	0.914	0.807	0.989	0.834
CC(=O)OC1(C(C)=O)CCC2C3C=C(Cl)C4=CC(=O)C5CC5C4(C)C3CCC21C (stereo not given) [Cyproterone Acetate]	0.858	0.902	0.79	0.86	0.736	0.85	0.718	0.741	0.787	0.866	0.819	0.658	0.779	0.595	0.638	0.635	0.571	0.554	0.529	0.573
CC12CCC(CC1=O)C2(C)C (stereo not given) [Camphor]	0.896	0.74	0.928	0.737	0.945	0.827	1.08	0.791	0.817	0.974	0.998	0.702	0.937	0.712	0.772	0.765	0.785	0.854	0.818	0.732
Cc1c(-c2ccc(O)cc2)n(Cc2ccc(OCCN3CCCCCC3)cc2)c2ccc(O)cc12.Cl [Bazedoxifene HCl]	0.947	1.01	1	0.975	0.981	1.04	1.14	1.07	1.03	1.06	1.03	1.07	1.04	1.05	1.09	1.08	1.34	1.5	1.31	1.95
Cl.Nc1ccn(C2OC(CO)C(O)C2(F)F)c(=O)n1 (stereo not given) [Gemcitabine HCl]	1.34	1.93	1.17	2.44	1.26	2.56	1.07	2.04	1.27	1.79	0.542	2.22	0.446	2.8	0.523	2.34	0.433	1.57	0.31	1.27
CN1CCC(=C2c3ccccc3CCn3c(C=O)cnc32)CC1 [Alcaftadine]	0.87	0.843	0.963	0.808	0.961	0.834	1.01	1	0.859	0.95	0.973	0.827	0.915	0.704	0.871	0.82	0.943	0.966	0.975	0.909
CCCCCOC(=O)Nc1nc(=O)n(C2OC(C)C(O)C2O)cc1F (stereo not given) [Capecitabine]	1.13	1.08	1.46	1.05	1.18	1	1.38	0.883	1.08	0.88	1.11	1.06	1.54	1.06	1.07	0.986	1.22	0.818	0.9	0.838
CS(=O)(=O)CCNCc1ccc(-c2ccc3ncnc(Nc4ccc(OCc5cccc(F)c5)c(Cl)c4)c3c2)o1.Cc1ccc(S(=O)(=O)O)cc1.Cc1ccc(S(=O)(=O)O)cc1	1.03	0.965	1.06	1.02	0.928	0.924	1.07	0.957	0.972	1.15	0.937	0.859	0.978	0.778	0.952	0.854	1.16	0.992	1.16	1.76
